# PubChem BioAssay AID1468 (National Center for Advancing Translational Sciences (NCATS), 2008)
# About 1,100 (0.39%) of roughly 280,000 compounds were called active. The shares of active, inactive and inconclusive entries below differ from those in the screen. Calls come from the whole dose curve; as a rule, active = well fitted inhibition curve with a large enough effect; inconclusive = small, poorly fitted or top-dose-only effect, or effect the other way; inactive = flat fitted curve, though single readings scatter. No potency is given beside an inconclusive call; the fits are too rough.
# Target: Microtubule-associated protein tau (Homo sapiens) (UniProt P10636)
# UniProt P10636, sequence (P10636 whole entry, looked up): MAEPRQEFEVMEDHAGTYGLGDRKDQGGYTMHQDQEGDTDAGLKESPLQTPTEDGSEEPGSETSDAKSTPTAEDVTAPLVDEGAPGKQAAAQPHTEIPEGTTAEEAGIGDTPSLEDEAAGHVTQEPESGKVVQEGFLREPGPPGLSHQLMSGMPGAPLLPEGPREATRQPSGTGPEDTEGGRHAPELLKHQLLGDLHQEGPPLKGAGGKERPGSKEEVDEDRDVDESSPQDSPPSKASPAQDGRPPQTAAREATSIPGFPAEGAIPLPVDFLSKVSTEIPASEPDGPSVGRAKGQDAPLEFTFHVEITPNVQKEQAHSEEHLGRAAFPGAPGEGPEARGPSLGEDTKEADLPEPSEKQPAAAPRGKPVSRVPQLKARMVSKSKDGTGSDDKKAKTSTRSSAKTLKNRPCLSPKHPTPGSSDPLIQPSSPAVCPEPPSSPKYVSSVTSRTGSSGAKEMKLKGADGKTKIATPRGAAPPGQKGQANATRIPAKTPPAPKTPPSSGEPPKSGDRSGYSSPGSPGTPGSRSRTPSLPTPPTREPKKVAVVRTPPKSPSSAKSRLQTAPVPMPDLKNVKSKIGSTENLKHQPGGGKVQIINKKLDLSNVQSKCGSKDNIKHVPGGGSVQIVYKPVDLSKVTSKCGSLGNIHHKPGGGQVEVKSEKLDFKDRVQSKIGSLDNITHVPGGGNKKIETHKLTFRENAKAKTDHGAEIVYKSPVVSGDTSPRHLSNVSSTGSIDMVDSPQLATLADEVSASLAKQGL
# Experiment: qHTS for Inhibitors of Tau Fibril Formation, Fluorescence Polarization; note: nearly all actives have a fitted effect of over 55% in size
# Details: K18 P301L tau heparin fibrillization, Alexa594 FP, 6 h; series mostly up to 57.7 µM
# In short: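 Read-out: fluorescence polarization of Alexa 594-labeled tau (0.24 uM), 555 nm excitation, 632 nm emission. Mixtures held 15 uM unlabeled K18 P301L, compound and 20 uM heparin, pH 7 acetate buffer, incubated 6 hr at 37 C.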
# Potency is the fitted concentration of half-maximal effect; tags give direction and shape of the fitted curve.
row,SMILES,Potency
1,CCOc1ccc(-n2c(=O)c3c4c(sc3n(CC(=O)NC(C)CC)c2=O)CCCC4)cc1 (configuration not stated),inactive
2,CC(=O)c1cccc(NC(=O)C2CCN(S(=O)(=O)c3ccc4[nH]c(=O)ccc4c3)CC2)c1,"inconclusive [inhibitor, partial curve, poor fit]"
3,CC(=O)Nc1ccc(S(=O)(=O)Nc2nccc(/C=C/c3ccc(Cl)cc3)n2)cc1,"inconclusive [inhibitor, single point]"
4,Cc1cccc(-n2c(=O)c3ccccc3n(Cc3ccccc3)c2=O)c1,inactive
5,CC1Cc2ccccc2N1S(=O)(=O)c1cccs1 (configuration not stated),"inconclusive [activator, partial curve]"
6,CCC(=O)N1CCN(c2ccc(NC(=S)NC(=O)c3ccc(OC)c([N+](=O)[O-])c3)cc2)CC1,"inconclusive [activator, single point]"
7,CC(C)c1ccc(NC(=O)CSc2nc3ccccc3nc2Cc2ccccc2)cc1,inactive
8,COc1ccccc1CNC(=O)C1CCN(S(=O)(=O)c2ccc3c(c2)CCCN3C(C)=O)CC1,inactive
9,O=C(N/N=C/c1c[nH]c2ccccc12)C1CC1(c1ccccc1)c1ccccc1 (configuration not stated),inactive
10,O=C(Nc1ccc(Br)cc1)Nc1ccccc1F,"inconclusive [inhibitor, partial curve]"
11,O=C(O)CCCN1C(=O)/C(=C\c2ccc(-c3nc4ccccc4s3)o2)SC1=S,"inconclusive [inhibitor, partial curve]"
12,O=C(c1ccc(C(=O)N2CCCCCC2)cc1)N1CCCCCC1,inactive
13,N#Cc1c(Nc2ccccc2C(F)(F)F)s[nH]c1=O,active: 28.2 µM
14,CC(CCc1ccccc1)NC(=O)C1CCN(S(=O)(=O)N2CCCCC2)CC1 (configuration not stated),"inconclusive [inhibitor, partial curve]"
15,CN(C)c1ccc(C(CNC(=O)c2ccccc2F)c2c[nH]c3ccccc23)cc1 (configuration not stated),"inconclusive [activator, partial curve]"
16,Cc1ccc2nc(/C(C#N)=C\c3ccc(N4CCOCC4)o3)[nH]c2c1,"inconclusive [inhibitor, partial curve]"
17,CCN1CCN(C(=O)C(C)Nc2cc(Cl)c(OC)cc2OC)CC1 (configuration not stated),"inconclusive [inhibitor, partial curve]"
18,CCOC(=O)c1ccc(N2C(=O)c3[nH]nc(-c4ccc(OCC)cc4)c3C2c2cccs2)cc1 (configuration not stated),"inconclusive [inhibitor, partial curve]"
19,Cc1cc(-c2ccc(S(=O)(=O)N3CCN(c4ccc(Cl)cc4)CC3)s2)on1,inactive
20,O=C(c1ccccc1Cl)N1CCCCC1CCN1CCOCC1 (configuration not stated),inactive
21,CCOc1cccc2c1Oc1nc(-c3ccccc3)nc(SCC(=O)Nc3ccc(F)cc3)c1C2,"inconclusive [inhibitor, partial curve, poor fit]"
22,COc1cccc2sc(NNC(=O)c3nc4ccccc4s3)nc12,"inconclusive [inhibitor, partial curve]"
23,COc1ccc(Cl)cc1NC(=O)C(C)N(C)Cc1cccc(Cl)c1Cl (configuration not stated),"inconclusive [inhibitor, partial curve, poor fit]"

row,SMILES,Potency
1,Nc1nc(C(=O)N2CCOCC2)nn1C(=O)c1ccc(Cl)cc1,"inconclusive [activator, single point]"
2,O=C(Nc1sc2c(c1C(=O)Nc1cccc(Cl)c1)CCCC2)c1cccs1,"inconclusive [inhibitor, partial curve]"
3,COc1ccc(/C=C/C(=O)c2ccccc2O)cc1,inactive
4,COc1cc([N+](=O)[O-])cc(/C=N/NC(=O)C(C)Nc2ccccc2C)c1O (configuration not stated),inactive
5,CCOC(=O)CNc1ccc2c(c1)OCO2,"inconclusive [inhibitor, single point]"
6,Cc1ccc(NC(=O)c2cc(S(=O)(=O)NC3CCCCC3)ccc2F)cc1Cl,"inconclusive [inhibitor, full curve, poor fit]"
7,CCCCC(=O)N1CCN(c2ccc(OC)cc2[N+](=O)[O-])CC1,inactive
8,O=C(CSc1ncn(-c2ccccc2)n1)Nc1nc2ccccc2s1,"inconclusive [inhibitor, partial curve]"
9,CC(/C=C1\SC(=S)N(NS(=O)(=O)c2ccc(C)cc2)C1=O)=C\c1ccccc1,"inconclusive [inhibitor, partial curve]"
10,COc1cccc(CN2CCC(N(CCc3ccccc3)Cc3ccccc3)CC2)c1OC,inactive
11,CCOC(=O)N1CCN(C(=S)NC(=O)c2ccc(F)cc2)CC1,inactive
12,Cc1ccc(NC(=O)N2CCN(c3ccc(Cl)c(Cl)c3)CC2)cc1,"inconclusive [inhibitor, partial curve]"
13,S=C(Nc1ccccc1Oc1ccccc1)NC1CCCC1,inactive
14,CC(=O)O[C@]1(C(C)=O)CC[C@H]2C3C=C(Cl)C4=CC(=O)[C@@H]5C[C@H]5[C@]4(C)C3CC[C@@]21C (some centres not stated),inactive
15,CCOc1ccc(-c2nc(CN(Cc3ccccc3)C[C@@H]3CCC(=O)N3)c(C)o2)cc1,inactive
16,CCN1C(=O)C2(C(C#N)=C(N)Oc3c2c(C)nn3-c2ccccc2)c2ccccc21 (configuration not stated),"inconclusive [inhibitor, partial curve]"
17,S=C=Nc1cccc(NC(=S)NCCCCNC(=S)Nc2cccc(N=C=S)c2)c1,"inconclusive [inhibitor, single point]"
18,Cc1cc([N+](=O)[O-])nn1Cc1ccc(C(=O)N/N=C/c2ccc(N(C)C)cc2)cc1,"inconclusive [activator, single point]"
19,Fc1cc2[nH]cnc2cc1Cl,"inconclusive [inhibitor, full curve, poor fit]"
20,C#CCOCCOCCOCCNc1nc(N2CCN(C(=O)[C@H](C)n3cc(CCCN=C(N)N)nn3)CC2)nc(N2CCN(C(=O)[C@H](CCCCN)n3cc(CCCC)nn3)CC2)n1,"inconclusive [inhibitor, single point]"
21,CC(C)c1ccc2oc(-c3ccc(N)cc3)nc2c1,"inconclusive [activator, partial curve, poor fit]"
22,O=C(CSc1nnc(-c2ccc3c(c2)OCO3)o1)Nc1ncc(C(F)(F)F)cc1Cl,"inconclusive [inhibitor, single point]"
23,Cc1ccc(N=C2NC(=O)/C(=C/C=C/c3ccco3)S2)cc1C,"inconclusive [inhibitor, single point]"

row,SMILES,Potency
1,O=C(O)CN1C(=O)/C(=C/c2ccc(N3CCCCC3)o2)SC1=S,"inconclusive [inhibitor, partial curve]"
2,COc1cc(C(=O)NCc2cccc3ccccc23)cc(Cl)c1OC,"inconclusive [inhibitor, partial curve]"
3,COc1ccc(OC)c(CCNC(=O)Cn2ncc3c([nH]c4ccccc43)c2=O)c1,"inconclusive [inhibitor, single point]"
4,CC(C)(C)OC(=O)N1CCCC1C(=O)N1CCCC1C(=O)N1CCCC1C(=O)O (configuration not stated),inactive
5,Cc1cc(NC(=O)NC2(C(F)(F)F)Oc3ccc(Cl)cc3O2)no1 (configuration not stated),"inconclusive [inhibitor, partial curve]"
6,Cc1ccc(NC(=O)CN(C)C(=O)COc2cccc3cccnc23)cc1,"inconclusive [inhibitor, single point]"
7,O=C(CCn1c2c(c3ccccc31)CCCC2)NNC(=O)c1ccc(Cl)c([N+](=O)[O-])c1,"inconclusive [activator, partial curve, poor fit]"
8,COc1ccc(C2CC(=O)c3cc(-c4nc(-c5ccc(Cl)cc5)cs4)c(=O)[nH]c3C2)cc1OC (configuration not stated),"inconclusive [inhibitor, single point]"
9,CCOC(=O)C1(Cc2ccc(OC)cc2)CCN(C(=O)Cn2cnnn2)CC1,inactive
10,O=C(NC(Cc1c[nH]c2ccccc12)C(=O)N/N=C/c1cccc2ccccc12)c1cccs1 (configuration not stated),"inconclusive [inhibitor, single point]"
11,CC(C)(C)NC(=O)NC(=O)CN1CCN(S(=O)(=O)c2ccccc2)CC1,inactive
12,Cc1ccc(C(=O)NCCc2cc3ccc(C)c(C)c3[nH]c2=O)cc1[N+](=O)[O-],"inconclusive [inhibitor, single point]"
13,CC(C)Oc1ccc(-c2nc3c(C#N)c[nH]n3c2NC2CCCCC2)cc1,"inconclusive [activator, single point]"
14,Cc1cccc(C)c1OCC(O)Cn1c2ccccc2c2ccccc21 (configuration not stated),"inconclusive [inhibitor, single point]"
15,CCOC(=O)CC(=O)CSc1nnc(Cn2c(=O)sc3ccccc32)n1C,"inconclusive [activator, single point]"
16,CCc1ccc(OCC(=O)NC(NC(=S)Nc2ccc(Cl)cc2)C(Cl)(Cl)Cl)cc1 (configuration not stated),"inconclusive [inhibitor, partial curve]"
17,Cc1cc(/C=C2/NC(=O)N(c3ccccc3)C2=O)c(C)n1-c1cccnc1,inactive
18,CCCCCCCCc1nc(SCC(C)=O)n[nH]1,"inconclusive [activator, single point]"
19,CCCCOC(=O)c1ccc(NC(=O)/C=C/c2cccs2)cc1,active: 14.1 µM
20,O=C(c1cc2nc(-c3ccco3)cc(C(F)(F)F)n2n1)N1CCN(c2ccc(F)cc2)CC1,inactive
21,CCN(CC)CCN(C)C(=O)CCc1nnc(-c2ccc(C)s2)o1,inactive
